# Measurements as given in the supplement of paper PMC10338343.
# ± gives the standard deviation. The full ranking holds about 3,000 sequences; the median of “pre-steady-state target cleavage rate” is about 0.0079, and the highest 2% start at about 0.2. This is a selection; strong and weak results do not stand in their true shares.
# Test system: MILI (PIWIL2) piRISC loaded with piRNA #2 (26 nt)
# Assay: pre-steady-state target cleavage rate (min^-1); MIWI and MILI are mouse PIWI proteins and EfPiwi is from a freshwater sponge; tags in brackets are library labels; higher = faster piRNA-guided slicing of the target
# Settings: guide: piRNA #2 5'p-UUAGGUAACCCAGUAGAUCCAGAGGA; auxiliary factor: 500 nM mouse GTSF1
# Protocol: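 Cleave-'n-Seq: a library of target RNAs (target site embedded in constant flanks, ACAGCATTCCGCGTTAGTGATATCCG... 5' flank; DNA-blocked outside the site) at 0.1 nM was incubated with 1 nM active mouse MILI or MIWI piRISC (synthetic 5'-monophosphorylated piRNA guide) with or without 500 nM mouse GTSF1 at 33 °C for 1 min to 16 h. Uncleaved targets were sequenced and normalised to non-target controls, and the pooled three trials were fitted to a burst-and-steady-state model to give the pre-steady-state cleavage rate (min^-1; k3 is constrained to at most 1e-4). Sequence is the target site only; target names encode pairing extent (gX:gY) and contiguous / 1-mismatch / 2-mismatch / bulge geometry. Fits with R² ≤ 0 are excluded.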
row,Sequence,pre-steady-state target cleavage rate
1,CUUAAGGAGUGGAUCUACUGGGUUACGUAA,0.0045 ± 0.0042
2,CUUAAGGAGAGGAUCUACUGGGUUACCUCA,0.00557 ± 0.0041
3,CUUAUCGUCUGGAUCUACUGGGUUAGCUAA,0.0155 ± 0.008
4,CUUAAGGUCUGGAUCUACUGGGUUACCGAA,0.0348 ± 0.01
5,CUUAACCUCUGGAACUUCUGGGUUACCUAA,0.103 ± 0.028
6,CUUAAGGACUGGAGCUACUGGGUUACCUAA,0.0233 ± 0.012
7,CUUAUGCUCUGGAUCUACUGGGUUACCUAA,0.0726 ± 0.012
8,CUUAAGCUCUGGAUCUACAGGGUUACCUUA,0.045 ± 0.01
9,CUUAAGGAGACGAUCUUCAGGGUUACCUAA,0.0054 ± 0.003
10,CUUAAGGUCUGGAUCUACUGGGUUACCAA,0.0545 ± 0.012
11,CUUAUCCUCAGGAUCUACUGGGUUACCUAA,0.114 ± 0.021
12,CUUAAGGUCUGGAUGAUCUGGGUUACCUAA,0.00928 ± 0.0075
13,CUUAAGCUGACGAUCUACUGGGUUACCUAA,0.0365 ± 0.015
14,CUUAUCCUCUGGAUCAACUGGGUUACCUUA,0.0776 ± 0.018
15,CUUAUCCUCUGGAAGAACUGGGUUACCUAA,0.0135 ± 0.0073
16,CUUAAGCUCUGGAUCUACUGGGAUAGCUAA,0.0319 ± 0.0099
17,CUUAACCUCUGGAUCUACUGGGUUACCUAU [g2:g25:cont:t1U],0.14 ± 0.027
18,CUUAAGCUCUGGAUCUACUGGGUUUCCUUA,0.083 ± 0.025
19,CUUAACCUCUCGAUCUUCUGGGUUACCUAA,0.143 ± 0.026
20,CUUAAGGUCUGGAUCUACUGGGUAACCUAA,0.0247 ± 0.0096
21,CUUAAGGUCUGGAUCUACUGGGUUACCUCAA,0.0674 ± 0.015
22,CUUAAGGAGUGGAUCUACUGGGUUACGUUA,0.0049 ± 0.0037
23,CUUAAGGAGUGGAUCAACAGGGUUACCUAA,0.0156 ± 0.005
24,CUUAAGCUUUGGAUCUACUGGGUUACCUAA,0.103 ± 0.024

row,Sequence,pre-steady-state target cleavage rate
1,CUUAACCUCUGGUUCUACUGGGUUAGCUAA,0.0494 ± 0.022
2,CUUAACCUCUGGAUCUACUGGGAUAGCUAA,0.0457 ± 0.016
3,CUUAACCUCUGGAACUAGUGGGUUACCUAA,0.0705 ± 0.016
4,CUUAUGCUCUGGAUCUACAGGGUUACCUAA,0.0815 ± 0.01
5,CUUAAGGGCUGGAUCUACUGGGUUACCUAA,0.0437 ± 0.019
6,CUUAUCCUCUGGAUCUACUGGGUUUCCUAA,0.252 ± 0.072
7,CUUAAGGAGACCUACUAUCUGGGUUACCUAA,< 0.0001
8,CUUAUCCUCUGGAUCUUCUGGGUUACCAAA,0.0923 ± 0.02
9,CUUAAGCUCUGGAUCUACUGGGUUCCUAA,0.0109 ± 0.0054
10,CUUAUCCUCUGGAUCAACUGGGAUACCUAA,0.0168 ± 0.0061
11,CUUAAGGUCUGGAUCUAGUGGGUUUCCUAA,0.0567 ± 0.016
12,CUUAUCCACUGGAUCUACUGCGUUACCUAA,0.01 ± 0.0035
13,CUUAAGGAGUGGAUCUACUGGGUUACUUAA,0.0133 ± 0.0061
14,CUUAAGGACUGGAUGUAGUGGGUUACCUAA,0.0169 ± 0.0074
15,CUUAAGGACUGGAUCUAUUGGGUUACCUAA,0.0187 ± 0.0078
16,CUUAACCUCUGGAUCAUGUGGGUUACCUAA,0.0042 ± 0.004
17,CUUAAGCUCAGGAUGUACUGGGUUACCUAA,0.0733 ± 0.014
18,CUUAACCUCUGGAUCUACUGGGUUGACCUAA,0.0901 ± 0.021
19,CUUAACCUCUGGAUCUACAGGGUUACCAAA,0.0393 ± 0.011
20,CUUAAGCUCUGCAUCUACUGGGUUACCAAA,0.0827 ± 0.019
21,CUUAAGGAGAGGAUCUAGCUGGGUUACCUAA,< 0.0001
22,CUUAAGCUCUGGAUUCUACUGGGUUACCUAA,0.0799 ± 0.023
23,CUUAUCCUCUGGAUCUUCUGGGUUACGUAA,0.0581 ± 0.016
24,CUUAACCUCUGGAUCCUACUGGGUUACCUAA,0.0602 ± 0.017

row,Sequence,pre-steady-state target cleavage rate
1,CUUAAGGAGAGGUAUCUACUGGGUUACCUAA,0.00554 ± 0.0041
2,CUUAAGCUCUCGAUCUACAGGGUUACCUAA,0.0883 ± 0.013
3,CUUAAGGACUGGUUCUACUGGGUUACCUUA,0.0139 ± 0.01
4,CUUAACCUCUGGAUUUACUGGGUUACCUAA,0.137 ± 0.024
5,CUUAAGCUCUGGAACUACUGGGUUUCCUAA,0.0736 ± 0.03
6,CUUAAGGACUGAAUCUACUGGGUUACCUAA,0.019 ± 0.011
7,CUUAACCUCUGGAUCUACUGGGUUAUCUAA,0.082 ± 0.018
8,CUUAUGCACUGGAUCUACUGGGUUACCUAA,0.12 ± 0.015
9,CUUAACCUCUGGAUGUACUGGGUUAGCUAA,0.0271 ± 0.011
10,CUUAACCUCAGGAUGUACUGGGUUACCUAA,0.0727 ± 0.016
11,CUUAAGCUGUGGAUCUACUGGGUAACCUAA,0.00606 ± 0.006
12,CUUAUCCUCGUGGAUCUACUGGGUUACCUAA,0.0461 ± 0.025
13,CUUAAGGAGACCUAGAUGUGCGUUACCAAA,< 0.0001
14,CUUAACCUCUCGAUGUACUGGGUUACCUAA,0.0988 ± 0.02
15,CUUAAGGUCUGGAUCUACUGGGAUACCUUA,0.00686 ± 0.0031
16,CUUAAGCUCUGGAUCUACUGGGAAACCUAA,0.0263 ± 0.009
17,CUUAAGGAGAGGAUCUACUGGGUUACCUCAA,0.007 ± 0.0047
18,CUUAUCCUCUGGAUCUACUGGGUUAACCUAA,0.131 ± 0.024
19,CUUAUCCUGUCGAUCUACUGGGUUACCUAA,0.114 ± 0.02
20,CUUAAGGUCUGGAUCUACGGGGUUACCUAA,0.0826 ± 0.0095
21,CUUAACGUCUGGAUGUACUGGGUUACCUAA,0.0455 ± 0.025
22,CUUAACGUCUGGAUCAACUGGGUUACCUAA,0.0578 ± 0.014
23,CUUAAGGACAGGAUGUACUGGGUUACCUAA,0.0124 ± 0.01
24,CUUAACCUCUGGAUCUACUGGAUUACCUAA,0.0249 ± 0.0075
